Results from the supplement of paper PMC8728848.
Some of the results follow.

Tests used:
Assay in all cases: glycan array binding signal (z-score within array); higher = stronger binding
Conditions in all cases: glycan notation: IUPAC condensed, linker removed
[1] = biological target: Gal(b1-2)Gal
Summary of the method: (§1)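 The Consortium for Functional Glycomics database supplied 3228 glycan arrays, of which those lacking an available protein sequence were dropped. The binding signal, a within-array Z-score, was averaged across arrays of the same protein sequence and across linkers. Negative scores can be read as non-binding.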

[2] = biological target: Gal(b1-3)Gal
Summary of the method: as §1

[3] = biological target: Gal(b1-3)Gal(b1-4)GlcNAc
Summary of the method: as §1

[4] = biological target: Gal(b1-3)GalNAc
Summary of the method: as §1

[5] = biological target: Gal(b1-3)GalNAc(a1-3)[Fuc(a1-2)]Gal(b1-4)Glc
Summary of the method: as §1

[6] = biological target: Gal(b1-3)GalNAc(a1-3)[Fuc(a1-2)]Gal(b1-4)GlcNAc
Summary of the method: as §1

[7] = biological target: Gal(b1-3)GalNAc(b1-3)Gal
Summary of the method: as §1

[8] = biological target: Gal(b1-3)GalNAc(b1-3)Gal(a1-4)Gal(b1-4)Glc
Summary of the method: as §1

[9] = biological target: Gal(b1-3)GalNAc(b1-4)Gal(b1-4)Glc
Summary of the method: as §1

[10] = biological target: Gal(b1-3)GalNAc(b1-4)[Neu5Ac(a2-3)]Gal(b1-4)Glc
Summary of the method: as §1

[11] = biological target: Gal(b1-3)GlcNAc
Summary of the method: as §1

[12] = biological target: Gal(b1-3)GlcNAc(a1-3)Gal(b1-4)GlcNAc
Summary of the method: as §1

[13] = biological target: Gal(b1-3)GlcNAc(a1-6)Gal(b1-4)GlcNAc
Summary of the method: as §1

[14] = biological target: Gal(b1-3)GlcNAc(b1-2)Man
Summary of the method: as §1

[15] = biological target: Gal(b1-3)GlcNAc(b1-2)Man(a1-3)[Gal(b1-3)GlcNAc(b1-2)Man(a1-6)]Man(b1-4)GlcNAc(b1-4)GlcNAc
Summary of the method: as §1

[16] = biological target: Gal(b1-3)GlcNAc(b1-2)Man(a1-3)[Gal(b1-3)GlcNAc(b1-2)Man(a1-6)]Man(b1-4)GlcNAc(b1-4)[Fuc(a1-6)]GlcNAc
Summary of the method: as §1

[17] = biological target: Gal(b1-3)GlcNAc(b1-2)Man(a1-3)[GlcNAc(b1-4)][Gal(b1-3)GlcNAc(b1-2)Man(a1-6)]Man(b1-4)GlcNAc(b1-4)GlcNAc
Summary of the method: as §1

[18] = biological target: Gal(b1-3)GlcNAc(b1-2)[Gal(b1-3)GlcNAc(b1-6)]Man(a1-6)[Gal(b1-3)GlcNAc(b1-2)Man(a1-3)]Man(b1-4)GlcNAc(b1-4)GlcNAc
Summary of the method: as §1

[19] = biological target: Gal(b1-3)GlcNAc(b1-3)Gal(b1-3)GlcNAc
Summary of the method: as §1

[20] = biological target: Gal(b1-3)GlcNAc(b1-3)Gal(b1-4)Glc
Summary of the method: as §1

[21] = biological target: Gal(b1-3)GlcNAc(b1-3)Gal(b1-4)GlcNAc
Summary of the method: as §1

[22] = biological target: Gal(b1-3)GlcNAc(b1-3)Gal(b1-4)GlcNAc(b1-2)Man(a1-3)[Gal(b1-3)GlcNAc(b1-3)Gal(b1-4)GlcNAc(b1-2)Man(a1-6)]Man(b1-4)GlcNAc(b1-4)GlcNAc
Summary of the method: as §1

[23] = biological target: Gal(b1-3)GlcNAc(b1-3)Gal(b1-4)GlcNAc(b1-2)[Gal(b1-3)GlcNAc(b1-3)Gal(b1-4)GlcNAc(b1-6)]Man(a1-6)[Gal(b1-3)GlcNAc(b1-3)Gal(b1-4)GlcNAc(b1-2)Man(a1-3)]Man(b1-4)GlcNAc(b1-4)[Fuc(a1-6)]GlcNAc
Summary of the method: as §1

[24] = biological target: Gal(b1-3)GlcNAc(b1-3)Gal(b1-4)GlcNAc(b1-3)Gal(b1-4)GlcNAc(b1-2)[Gal(b1-3)GlcNAc(b1-3)Gal(b1-4)GlcNAc(b1-3)Gal(b1-4)GlcNAc(b1-6)]Man(a1-6)[Gal(b1-3)GlcNAc(b1-3)Gal(b1-4)GlcNAc(b1-3)Gal(b1-4)GlcNAc(b1-2)Man(a1-3)]Man(b1-4)GlcNAc(b1-4)[Fuc(a1-6)]GlcNAc
Summary of the method: as §1

[25] = biological target: Gal(b1-3)GlcNAc(b1-3)Gal(b1-4)GlcNAc(b1-6)[Gal(b1-3)GlcNAc(b1-3)]Gal(b1-4)Glc
Summary of the method: as §1

[26] = biological target: Gal(b1-3)GlcNAc(b1-3)Gal(b1-4)[Fuc(a1-3)]GlcNAc
Summary of the method: as §1

[27] = biological target: Gal(b1-3)GlcNAc(b1-3)Gal(b1-4)[Fuc(a1-3)]GlcNAc(b1-6)[Gal(b1-3)GlcNAc(b1-3)]Gal(b1-4)Glc
Summary of the method: as §1

[28] = biological target: Gal(b1-3)GlcNAc(b1-3)GalNAc
Summary of the method: as §1

[29] = biological target: Gal(b1-3)GlcNAc(b1-6)Gal(b1-4)GlcNAc
Summary of the method: as §1

[30] = biological target: Gal(b1-3)GlcNAc(b1-6)GalNAc
Summary of the method: as §1

[31] = biological target: Gal(b1-3)GlcNAc(b1-6)[Gal(b1-3)]GalNAc
Summary of the method: as §1

[32] = biological target: Gal(b1-3)GlcNAc6S
Summary of the method: as §1

[33] = biological target: Gal(b1-3)[Fuc(a1-4)]GlcNAc
Summary of the method: as §1

[34] = biological target: Gal(b1-3)[Fuc(a1-4)]GlcNAc(b1-2)Man
Summary of the method: as §1

[35] = biological target: Gal(b1-3)[Fuc(a1-4)]GlcNAc(b1-2)Man(a1-3)[Gal(b1-3)[Fuc(a1-4)]GlcNAc(b1-2)Man(a1-6)]Man(b1-4)GlcNAc(b1-4)[Fuc(a1-6)]GlcNAc
Summary of the method: as §1

[36] = biological target: Gal(b1-3)[Fuc(a1-4)]GlcNAc(b1-3)Gal(b1-3)[Fuc(a1-4)]GlcNAc
Summary of the method: as §1

[37] = biological target: Gal(b1-3)[Fuc(a1-4)]GlcNAc(b1-3)Gal(b1-4)[Fuc(a1-3)]GlcNAc
Summary of the method: as §1

[38] = biological target: Gal(b1-3)[Fuc(a1-4)]GlcNAc(b1-6)GalNAc
Summary of the method: as §1

[39] = biological target: Gal(b1-3)[GlcNAc(b1-6)]GalNAc
Summary of the method: as §1

[40] = biological target: Gal(b1-3)[Neu5Ac(a2-6)]GalNAc
Summary of the method: as §1

[41] = biological target: Gal(b1-3)[Neu5Ac(a2-6)]GlcNAc(b1-4)Gal(b1-4)Glc
Summary of the method: as §1

[42] = biological target: Gal(b1-3)[Neu5Ac(b2-6)]GalNAc
Summary of the method: as §1

[43] = biological target: Gal(b1-4)Gal
Summary of the method: as §1

[44] = biological target: Gal(b1-4)GalNAc(a1-3)[Fuc(a1-2)]Gal(b1-4)GlcNAc
Summary of the method: as §1

[45] = biological target: Gal(b1-4)GalNAc(b1-3)[Fuc(a1-2)]Gal(b1-4)GlcNAc
Summary of the method: as §1

B1: HPL (Tachypleus tridentatus) (protein)
chain: MEDDCTCVTDRSLEGKLMKHPSTPAVYQILDGCRRLVPNPPTYNNIYKNWECIQSNILEKLLCKCDSLSNGAELIKGSGDTVYLLSNGVKRPIADPETFNGFCFDWNKIKTYSDIVINSLSTGPIIIIKHHHHHH
[1]
  glycan array binding signal (z-score): 0.438
[2]
  glycan array binding signal (z-score): 0.497
[3]
  glycan array binding signal (z-score): -0.282
[4]
  glycan array binding signal (z-score): -0.241
[5]
  glycan array binding signal (z-score): -0.336
[6]
  glycan array binding signal (z-score): -0.266
[7]
  glycan array binding signal (z-score): -0.319
[8]
  glycan array binding signal (z-score): -0.097
[9]
  glycan array binding signal (z-score): -0.231
[10]
  glycan array binding signal (z-score): -0.229
[11]
  glycan array binding signal (z-score): -0.177
[12]
  glycan array binding signal (z-score): -0.413
[13]
  glycan array binding signal (z-score): -0.382
[14]
  glycan array binding signal (z-score): -0.174
[15]
  glycan array binding signal (z-score): 0.239
[16]
  glycan array binding signal (z-score): 0.727
[17]
  glycan array binding signal (z-score): 0.599
[18]
  glycan array binding signal (z-score): -0.169
[19]
  glycan array binding signal (z-score): 0.732
[20]
  glycan array binding signal (z-score): -0.059
[21]
  glycan array binding signal (z-score): 0.01
[22]
  glycan array binding signal (z-score): 0.362
[23]
  glycan array binding signal (z-score): 0.189
[24]
  glycan array binding signal (z-score): 0.382
[25]
  glycan array binding signal (z-score): -0.248
[26]
  glycan array binding signal (z-score): -0.309
[27]
  glycan array binding signal (z-score): -0.372
[28]
  glycan array binding signal (z-score): -0.36
[29]
  glycan array binding signal (z-score): -0.403
[30]
  glycan array binding signal (z-score): -0.329
[31]
  glycan array binding signal (z-score): -0.084
[32]
  glycan array binding signal (z-score): -0.377
[33]
  glycan array binding signal (z-score): -0.223
[34]
  glycan array binding signal (z-score): 1.71
[35]
  glycan array binding signal (z-score): -0.28
[36]
  glycan array binding signal (z-score): -0.131
[37]
  glycan array binding signal (z-score): -0.097
[38]
  glycan array binding signal (z-score): -0.093
[39]
  glycan array binding signal (z-score): 0.017
[40]
  glycan array binding signal (z-score): 0.986
[41]
  glycan array binding signal (z-score): -0.337
[42]
  glycan array binding signal (z-score): -0.356
[43]
  glycan array binding signal (z-score): -0.234
[44]
  glycan array binding signal (z-score): -0.198
[45]
  glycan array binding signal (z-score): -0.315
